Measurements published in the supplement of paper PMC4967469.
Lines with a small IC50 respond at low doses; a limit (>, <) means that the fit lies beyond the doses tested. AUC is the area under the same curve over the 256-fold range up to the top dose, as a fraction: 1 means no effect, lower means more sensitive. Where the top dose is marked as inferred, it was calculated from the reported fits.

Key:
Experiment in all cases: Viability of human cancer cell lines after 72 h of drug (GDSC screen)
KIN001-266 = compound: CCN1CCC(n2cc(CNc3cc(Cl)c4ncc(C#N)c(Nc5ccc(F)c(Cl)c5)c4c3)nn2)CC1 [KIN001-266]; details: top dose 20 µM; top dose inferred
Description: (§1)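 Human cancer cell lines in 384-well plates, medium with 10% serum, drug for 72 h over a 256-fold dose range (nine 2-fold or five 4-fold steps up to the top dose). Adherent lines were fixed and stained with the nucleic acid dye Syto60, suspension lines read with resazurin; signal relative to control wells, capped at 0 and 100%. One two-parameter sigmoid per drug and line, fitted in a mixed model over all curves with the slope shared within a line.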

CCT007093 = compound: O=C1/C(=C/c2cccs2)CC/C1=C\c1cccs1 [CCT007093]; details: top dose 6.6 µM; top dose inferred
Description: as §1

QL-XII-47 = compound: C=CC(=O)N1CCc2ccc(-n3c(=O)ccc4cnc5ccc(-c6cnn(C)c6)cc5c43)cc21 [QL-XII-47]; details: top dose 10.24 µM; top dose inferred
Description: as §1

BAY 61-3606 = compound: COc1ccc(-c2cc3nccn3c(Nc3ncccc3C(N)=O)n2)cc1OC [BAY 61-3606]; details: top dose 8 µM; top dose inferred
Description: as §1

| Cell Line | AUC (KIN001-266) | IC50 (KIN001-266) | AUC (CCT007093) | IC50 (CCT007093) | AUC (QL-XII-47) | IC50 (QL-XII-47) | AUC (BAY 61-3606) | IC50 (BAY 61-3606) |
| --- | --- | --- | --- | --- | --- | --- | --- | --- |
| OSC-20 (head and neck, adherent) | 0.832 | 16.3 µM | 0.941 | > 6.6 µM | 0.55 | 0.897 µM | 0.75 | 3.05 µM |
| NCI-H82 (small cell lung carcinoma, suspension) | 0.89 | > 20 µM | 0.988 | > 6.6 µM | 0.971 | > 10.2 µM | 0.927 | > 8 µM |
| LNCaP-Clone-FGC (prostate, adherent) | 0.885 | > 20 µM | 0.982 | > 6.6 µM | 0.408 | 0.346 µM | 0.738 | 2.67 µM |
| NCI-H1048 (small cell lung carcinoma, adherent) | 0.858 | 13.9 µM | 0.967 | > 6.6 µM | 0.731 | 2.68 µM | 0.814 | 3.82 µM |
| NCI-H2009 (lung adenocarcinoma, adherent) | 0.978 | > 20 µM | 0.981 | > 6.6 µM | 0.971 | > 10.2 µM | 0.828 | 5.32 µM |
| CAL-39 (cervix, adherent) | 0.959 | > 20 µM | 0.967 | > 6.6 µM | 0.755 | 3.6 µM | 0.772 | 3.21 µM |
| Becker (glioma, adherent) | 0.976 | > 20 µM | 0.93 | > 6.6 µM | 0.859 | > 10.2 µM | 0.93 | > 8 µM |
| CAL-27 (head and neck, adherent) | 0.904 | > 20 µM | 0.986 | > 6.6 µM | 0.799 | 5.04 µM | 0.813 | 4.42 µM |
| OVCAR-5 (ovary, adherent) | 0.909 | > 20 µM | 0.977 | > 6.6 µM | 0.632 | 1.6 µM | 0.849 | 7.99 µM |
| NCI-H441 (lung adenocarcinoma, adherent) | 0.965 | > 20 µM | 0.981 | > 6.6 µM | 0.973 | > 10.2 µM | 0.81 | 6.51 µM |
| KM12 (large intestine, adherent) | 0.858 | 18.8 µM | 0.961 | > 6.6 µM | 0.761 | 3.93 µM | 0.737 | 2.54 µM |
| HTC-C3 (thyroid, adherent) | 0.903 | > 20 µM | 0.966 | > 6.6 µM | 0.565 | 0.983 µM | 0.9 | > 8 µM |
| H3118 (head and neck, adherent) | 0.844 | 16.2 µM | 0.951 | > 6.6 µM | 0.712 | 2.71 µM | 0.826 | 5.44 µM |
| CaR-1 (large intestine, adherent) | 0.891 | > 20 µM | 0.911 | > 6.6 µM | 0.931 | > 10.2 µM | 0.96 | > 8 µM |
| GP5d (large intestine, adherent) | 0.883 | 17.5 µM | 0.991 | > 6.6 µM | 0.875 | 8.3 µM | 0.91 | > 8 µM |
| KMOE-2 (acute myeloid leukaemia, suspension) | 0.872 | 15.5 µM | 0.988 | > 6.6 µM | 0.706 | 2.26 µM | 0.788 | 3.11 µM |
| NCI-H1993 (lung adenocarcinoma, adherent) | 0.963 | > 20 µM | 0.95 | > 6.6 µM | 0.706 | 2.98 µM | 0.944 | > 8 µM |
| LC-1-sq (lung squamous cell carcinoma, adherent) | 0.983 | > 20 µM | 0.969 | > 6.6 µM | 0.933 | > 10.2 µM | 0.961 | > 8 µM |
| U251 (glioma, adherent) | 0.835 | 12.3 µM | 0.983 | > 6.6 µM | 0.383 | 0.31 µM | 0.945 | > 8 µM |
| EFM-192A (breast, adherent) | 0.98 | > 20 µM | 0.969 | > 6.6 µM | 0.71 | 2.7 µM | 0.508 | 0.526 µM |
| CW-2 (large intestine, adherent) | 0.876 | > 20 µM | 0.972 | > 6.6 µM | 0.874 | > 10.2 µM | 0.989 | > 8 µM |
| IPC-298 (melanoma, adherent) | 0.875 | 19.2 µM | 0.971 | > 6.6 µM | 0.955 | > 10.2 µM | 0.975 | > 8 µM |
| HT-115 (large intestine, adherent) | 0.983 | > 20 µM | 0.991 | > 6.6 µM | 0.988 | > 10.2 µM | 0.962 | > 8 µM |
| no-11 (glioma, adherent) | 0.893 | > 20 µM | 0.983 | > 6.6 µM | 0.528 | 0.779 µM | 0.873 | > 8 µM |
| MCF7 (breast, adherent) | 0.981 | > 20 µM | 0.809 | 3.61 µM | 0.986 | > 10.2 µM | 0.631 | 1.16 µM |
| KMS-12-BM (myeloma, suspension) | 0.9 | 17.7 µM | 0.981 | > 6.6 µM | 0.85 | 5.79 µM | 0.913 | > 8 µM |
| SNU-423 (liver, adherent) | 0.85 | 19.3 µM | 0.983 | > 6.6 µM | 0.288 | 0.144 µM | 0.858 | > 8 µM |
| SIMA (neuroblastoma, adherent) | 0.786 | 9.91 µM | 0.985 | > 6.6 µM | 0.78 | 4.8 µM | 0.839 | 6.49 µM |
| TE-6 (oesophagus, adherent) | 0.912 | > 20 µM | 0.938 | > 6.6 µM | 0.903 | > 10.2 µM | 0.859 | > 8 µM |
| NCI-SNU-16 (stomach, suspension) | 0.987 | > 20 µM | 0.976 | > 6.6 µM | 0.991 | > 10.2 µM | 0.977 | > 8 µM |
